Results taken from the supplement of paper PMC8183993.
Where a name gives a salt, the structure may show the parent alone. ± gives the standard deviation of the averaged measurements. Over roughly 3,100 compounds, “mean cytoplasmic OPP incorporation (global translation) relative to DMSO” has its median near 100; the lowest 2% begin near 56. The list shows a part of the results. Peptide text beside a SMILES is read from it.

Each compound was assayed on U2OS (assay: mean cytoplasmic OPP incorporation (global translation) relative to DMSO (% of DMSO); higher = more protein synthesis). Conditions: 10 µM; 24 h.
Procedure: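 Primary image-based screen in U2OS cells: compounds at 10 uM for 24 h, then a 1 h o-propargyl-puromycin (OPP) pulse, click labelling, and high-throughput microscopy. Mean cytoplasmic OPP intensity and nuclei count were normalised to DMSO wells within each plate (DMSO = 100) and averaged over triplicate plates.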

Compound	mean cytoplasmic OPP incorporation
Cc1ccc(-c2cc(C(F)(F)F)nn2-c2ccc(S(N)(=O)=O)cc2)cc1 [Celecoxib]	108 ± 1.8
O=C(O)c1cccc(-c2noc(-c3ccccc3F)n2)c1 [PTC124 (Ataluren)]	103
Nc1ccc(S(=O)(=O)Nc2nccs2)cc1 [Sulfathiazole]	102
CC(CNC1CCCCC1)OC(=O)c1ccccc1 (stereo unspecified) [Hexylcaine hydrochloride]	100
CN[C@H]1CC[C@@H](c2ccc(Cl)c(Cl)c2)c2ccccc21 [Sertraline HCl]	114
CN[C@H]1CC[C@@H](c2ccc(Cl)c(Cl)c2)c2ccccc21 [Sertraline hydrochloride]	106
CN[C@H]1CC[C@@H](c2ccc(Cl)c(Cl)c2)c2ccccc21 [Sertraline]	107
C[C@@H]1CCC[C@H](C)N1NC(=O)c1ccc(Cl)c(S(N)(=O)=O)c1 [Clopamide]	103
N#Cc1c(N(CC(=O)O)CC(=O)O)sc(C(=O)O)c1CC(=O)O [Strontium ranelate (Protelos)]	96.6
CC[C@H]1OC(=O)[C@H](C)[C@@H](O[C@H]2C[C@@](C)(OC)[C@@H](O)[C@H](C)O2)[C@H](C)[C@@H](O[C@@H]2O[C@H](C)C[C@H](N(C)C)[C@H]2O)[C@](C)(O)C[C@@H](C)CN(C)[C@H](C)[C@@H](O)[C@]1(C)O [Azithromycin]	111
CCn1c(N)c(C(=O)NC)c(=O)c2ccc(C#CC(C)(O)COC)nc21 (stereo unspecified)	97.7 ± 0.15
CCOC(=O)C1=C(C)NC(=S)NC1c1cccc(O)c1 (stereo unspecified) [Monastrol]	89.1
OCCn1cc(-c2ccc3c(c2)CC/C3=N\O)c(-c2ccncc2)n1	109
CCS(=O)(=O)c1cccc(-c2cc(C(=O)NC3CCN(C)CC3)c(C)c3[nH]c4ncc(C)cc4c23)c1	46.8
C1CCC(N=C(NC23CC4CC(CC(C4)C2)C3)N2CCOCC2)CC1	106
COC(=O)[C@H](Cc1ccccc1)NC(=O)[C@@H](N)CC(=O)O [Aspartame] (H-Asp-Phe-OMe)	101
O=C(/C=C/c1ccc(O)c(O)c1)O[C@H](Cc1ccc(O)c(O)c1)C(=O)O [Rosmarinic acid]	106 ± 3.8
CO/N=C(\C(=O)N[C@@H]1C(=O)N2C(C(=O)O)=C(COC(C)=O)CS[C@H]12)c1csc(N)n1 [Cefotaxime sodium salt]	104
COC1CCC(C(=O)c2ccc3nc4c(cc3c2)CCCO4)CC1 (stereo unspecified)	98.8
C=C[C@](C)(O)CC[C@@H]1[C@@]2(C)CCCC(C)(C)[C@@H]2CC[C@@]1(C)O [Sclareol]	102
NC(=O)N/N=C/c1ccc(Oc2ccc(F)cc2)cc1	97.1
C[C@]12CC[C@@H]3c4ccc(O)cc4C[C@@H](CCCCCCCCC[S+]([O-])CCCC(F)(F)C(F)(F)F)[C@H]3[C@@H]1CC[C@@H]2O (stereo partly specified) [Fulvestrant (Faslodex)]	113
C[C@]12CC[C@@H]3c4ccc(O)cc4C[C@@H](CCCCCCCCC[S+]([O-])CCCC(F)(F)C(F)(F)F)[C@H]3[C@@H]1CC[C@@H]2O (stereo partly specified)	122
C[C@]12CC[C@@H]3c4ccc(O)cc4C[C@@H](CCCCCCCCC[S+]([O-])CCCC(F)(F)C(F)(F)F)[C@H]3[C@@H]1CC[C@@H]2O (stereo partly specified) [Fulvestrant]	114
COc1cc(CNC(=O)CCCC/C=C/C(C)C)ccc1O [Capsaicin]	94.2 ± 8.7
Clc1ccc(C2(c3ccc(-c4cn[nH]c4)cc3)CCNCC2)cc1	129

Compound	mean cytoplasmic OPP incorporation
NC1(Cc2ccc(Cl)cc2)CCN(c2ncnc3[nH]ccc23)CC1	93.7
Cc1cc(C(C)Nc2ccccc2)c2nc(N3CCOCC3)cc(=O)n2c1 (stereo unspecified)	113
Clc1ccc2nsnc2c1NC1=NCCN1 [Tizanidine HCl]	97.6
Cc1cc(Nc2cc(N3CCN(C)CC3)nc(Sc3ccc(NC(=O)C4CC4)cc3)n2)n[nH]1 [VX-680 (MK-0457, Tozasertib)]	92.6
CC(C)Oc1ccc2c(=O)c(-c3ccccc3)coc2c1 [Ipriflavone]	103
CC(=O)Nc1nnc(S(N)(=O)=O)s1 [Acetazolamide]	101
CCCCOc1ccc(C(=O)Nc2ccc(F)cc2F)cc1	98
Nc1nc(OCc2cc(Br)cs2)c2[nH]cnc2n1 [Lomeguatrib]	85.6
Cc1cc2cc3c(C)cc(=O)oc3c(C)c2o1 [Trioxsalen]	104
CCCCOc1cc(C(=O)OCCN(CC)CC)ccc1N [Benoxinate hydrochloride]	96.7
CC(C)c1ccccc1S(=O)(=O)c1cc(N)c2ncccc2c1[N+](=O)[O-]	89.5
CCOC(=O)C1=C(N)Oc2ccc(Br)cc2C1C(C#N)C(=O)OCC (stereo unspecified)	98.7 ± 2.9
CC#C[C@]1(O)CC[C@H]2[C@@H]3CCC4=CC(=O)CCC4=C3[C@@H](c3ccc(N(C)C)cc3)C[C@@]21C [Mifepristone]	109 ± 8.7
CC#C[C@]1(O)CC[C@H]2[C@@H]3CCC4=CC(=O)CCC4=C3[C@@H](c3ccc(N(C)C)cc3)C[C@@]21C [Mifepristone (Mifeprex)]	110
COc1cc(SC)ccc1C(=O)N1CCC(Cc2ccccc2)CC1	98
CC[C@@H]1C(=O)N(C)c2cnc(Nc3ccc(C(=O)N[C@H]4CC[C@H](N5CCN(CC6CC6)CC5)CC4)cc3OC)nc2N1C(C)C [BI6727 (Volasertib)]	130
CCc1cccc(CC)c1NC(=O)N1Cc2[nH]nc(NC(=O)c3ccc(N4CCN(C)CC4)cc3)c2C1	99.2
Nc1c(O)cc(O)cc1C=Cc1ccc(O)cc1 [Aminoresveratrol sulfate]	100
Nc1nc(=O)n([C@@H]2CS[C@H](CO)O2)cc1F [(-)-Emtricitabine]	105
COc1ccc(Cl)cc1C(=O)NCCc1ccc(S(=O)(=O)NC(=O)NC2CCCCC2)cc1 [Glibenclamide]	98.68 ± 0.63
COc1ccc(Cl)cc1C(=O)NCCc1ccc(S(=O)(=O)NC(=O)NC2CCCCC2)cc1 [Glyburide]	105
CCCOc1ccccc1-c1nc2[nH]nnc2c(=O)[nH]1 [Zaprinast]	102 ± 3.2
CCCCCCNC(=O)n1cc(F)c(=O)[nH]c1=O [Carmofur]	83.9
CCC[C@@H]1C[C@@H](C(=O)N[C@@H]([C@H]2O[C@H](SC)[C@H](OP(=O)(O)O)[C@@H](O)[C@H]2O)[C@H](C)Cl)N(C)C1 [Clindamycin phosphate]	101
COC(=O)C1=CO[C@@H](O)[C@@H]2C(CO)=CC[C@H]12 [Genipin]	99
Cc1nc(C(=O)NCC(=O)O)c(O)c2ccc(Oc3ccccc3)cc12	99.7

Compound	mean cytoplasmic OPP incorporation
COc1cccc2c1C(=O)c1c(O)c3c(c(O)c1C2=O)C[C@@](O)(C(=O)CO)C[C@@H]3O[C@H]1C[C@H](N)[C@H](O[C@@H]2CCCCO2)[C@H](C)O1 [Pirarubicin]	59.9
COc1cc2c(NC3CCN(C(C)C)CC3)nc(N3CCC(F)(F)CC3)nc2cc1OCCCN1CCCC1	63
COC(=O)N/N=C/c1c[n+]([O-])c2ccccc2[n+]1[O-] [Carbadox]	98.6
CN(C(=O)CN(CCO)CC(=O)N(C)C(C)(C)Cc1ccccc1)C(C)(C)Cc1ccccc1 [Oxethazaine]	120
Cc1cc(C)nc(NS(=O)(=O)c2ccc(N)cc2)n1 [Sulfamethazine sodium salt]	98.7
Cc1cc(C)nc(NS(=O)(=O)c2ccc(N)cc2)n1 [Sulfamethazine]	102
COc1cc(NS(=O)(=O)c2ccc(N)cc2)ncn1 [Sulfamonomethoxine]	96.3
CCN(c1ccccc1)c1cc(=NC)n(C)c(C)n1	82.7
CC1(C)O[C@@H]2C[C@H]3[C@@H]4C[C@H](F)C5=CC(=O)C=C[C@]5(C)[C@@]4(F)[C@@H](O)C[C@]3(C)[C@]2(C(=O)CO)O1 [Fluocinolone acetonide]	105
CC1(C)O[C@@H]2C[C@H]3[C@@H]4C[C@H](F)C5=CC(=O)C=C[C@]5(C)[C@@]4(F)[C@@H](O)C[C@]3(C)[C@]2(C(=O)CO)O1 [Fluocinolone acetonide (Flucort-N)]	104
CC(C)[C@H](N)C(=O)OCCOCn1cnc2c(=O)nc(N)[nH]c21 [Valacyclovir hydrochloride]	94.9
CN1CCN2c3ncccc3Cc3ccccc3C2C1 (stereo unspecified) [Mirtazepine]	94.1
CN1CCN2c3ncccc3Cc3ccccc3C2C1 (stereo unspecified) [Mirtazapine]	104
CC(C)N(CC[C@H](c1ccccc1)c1cc(CO)ccc1O)C(C)C	102
C[C@@H]1C/C=C/C=C/C=C/C=C/[C@H](O[C@@H]2O[C@H](C)[C@@H](O)[C@H](N)[C@@H]2O)C[C@@H]2O[C@](O)(C[C@@H](O)C[C@H]3O[C@@H]3/C=C/C(=O)O1)C[C@H](O)[C@H]2C(=O)O [Natamycin (Pimaricin)]	102
CC(C(O)c1ccc(O)cc1)N1CCC(Cc2ccccc2)CC1 (stereo unspecified) [Ifenprodil hemitartrate]	97.8
CC(C(O)c1ccc(O)cc1)N1CCC(Cc2ccccc2)CC1 (stereo unspecified) [Ifenprodil tartrate]	98.2
CCCn1c(=O)c(C)cn2nc(N)nc12	104
Cc1ccc(OCC(O)C(C)NC(C)C)c2c1CCC2 (stereo unspecified) [ICI-118,551 hydrochloride]	109
c1ccc2cc(C3=NCCN3)ncc2c1 [BU 226 hydrochloride]	95.6
Nc1nc2c(cnn2CCc2ccccc2)c2nc(-c3ccco3)nn12	102
O=C(/C=C/c1cccc(S(=O)(=O)Nc2ccccc2)c1)NO [Belinostat (PXD101)]	65.5
C=CCOc1ccccc1OCC(O)CNC(C)C (stereo unspecified) [Oxprenolol hydrochloride]	110
NC[C@H]1O[C@H](O[C@H]2[C@H](O)[C@@H](O[C@H]3O[C@H](CO)[C@@H](O)[C@H](N)[C@H]3O)[C@H](N)C[C@@H]2N)[C@H](N)C[C@@H]1O [Tobramycin]	99.2 ± 6.3
